Experimental findings from the antibiotic and cytotoxicity screens of Wong et al. (2023) are described below.

Assay [1] concerns HSkMC (human skeletal muscle cells). The assay can be described thus: cytotoxicity call (relative viability < 0.9). To be noted: 10 µM.
Assay [2] has as its system S. aureus RN4220. Description: growth inhibition call (relative growth <= 0.2). The settings on record: 50 µM.

SMILES strings stand for the structures. This is one part of the list.

On to `Cc1noc(C)c1S(=O)(=O)Nc1ccc2c(c1)C(=O)N([C@@H](C)CO)C[C@@H](C)[C@@H](CN(C)C(=O)Nc1ccccc1)OCCCC[C@@H](C)O2`, for which the cytotoxicity call in assay [1] is “inactive”. In assay [2], the growth inhibition call is “inactive”.
Turning to `Cc1ccc(S(=O)(=O)Nc2ccc3c(c2)C(=O)N([C@@H](C)CO)C[C@H](C)[C@H](CN(C)C(=O)NC2CCCCC2)OCCCC[C@H](C)O3)cc1`, the cytotoxicity call in assay [1] is “inactive”. Further, in assay [2], the growth inhibition call is “inactive”.
In the case of `COc1cccc(S(=O)(=O)Nc2ccc3c(c2)[C@@H]2C[C@H](CC(=O)NC4CCCCC4)O[C@@H](CO)[C@@H]2O3)c1`, the cytotoxicity call in assay [1] is “inactive”. In assay [2], the growth inhibition call is “inactive”.
